# Source: the supplement of paper PMC3334620
# Over roughly 33,000 sequences, “E-score (-0.5 to 0.5)” has its median near -0.036; the highest 2% begin near 0.37. The list shows a part of the results.
# Target: T1, Yer064c (UniProt P40041)
# T1 sequence: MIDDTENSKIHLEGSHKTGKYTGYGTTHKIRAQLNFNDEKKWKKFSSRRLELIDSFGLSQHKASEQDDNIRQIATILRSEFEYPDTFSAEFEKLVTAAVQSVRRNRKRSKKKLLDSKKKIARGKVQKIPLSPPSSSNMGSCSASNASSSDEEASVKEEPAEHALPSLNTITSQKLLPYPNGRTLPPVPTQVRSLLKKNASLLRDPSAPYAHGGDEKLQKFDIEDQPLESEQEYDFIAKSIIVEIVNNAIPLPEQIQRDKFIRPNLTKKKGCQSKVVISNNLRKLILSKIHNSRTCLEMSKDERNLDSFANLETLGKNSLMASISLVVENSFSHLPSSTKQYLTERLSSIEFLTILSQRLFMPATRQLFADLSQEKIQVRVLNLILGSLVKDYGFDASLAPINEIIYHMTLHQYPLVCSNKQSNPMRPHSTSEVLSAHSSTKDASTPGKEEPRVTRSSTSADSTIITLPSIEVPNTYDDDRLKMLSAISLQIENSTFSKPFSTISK
# Assay: PBM E-score (8-mer binding enrichment) (E-score (-0.5 to 0.5)); higher = stronger / more preferred TF binding; most listed sequences are background and not binding sites
# Conditions: protein concentration: 200 nM; construct: GST-full length
# Method in brief: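 Yeast transcription factors carrying a GST tag, as full-length proteins or DNA-binding domains, were produced by PURExpress in vitro transcription/translation. About 100-200 nM protein was applied to universal all-10-mer Agilent arrays, double-stranded by primer extension on fresh or once-stripped slides. Bound protein was detected with fluorescent anti-GST, and scans were normalised with masliner. The Universal PBM Analysis Suite gave each ungapped eight-base word, pooled with its reverse complement, an E-score, a modified Wilcoxon-Mann-Whitney statistic.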
row,Sequence,PBM E-score
1,AGCGGAGC,-0.328
2,CATCGGGA,0.03
3,GGCAAATA,-0.137
4,ATGATTTA,0.415
5,ACACCGAC,-0.00153
6,GTCCCATA,-0.0705
7,CAGGAGGG,-0.148
8,CCGCCGCA,-0.299
9,CGTCCACA,-0.164
10,CCCGGATA,0.0372
11,CTCTCATC,-0.0352
12,CGGATCAA,-0.0498
13,AAGATGTA,-0.0834
14,CTCCGAGC,0.0847
15,CATAATTA,0.12
16,ACCCTAAT,-0.13
17,ACGGGTTC,-0.0715
18,GGCTCTAC,-0.153
19,TAAGACAA,-0.0363
20,CTTCCCAC,-0.118
21,GCAACCAA,0.0385
22,GACCCTCC,-0.0513
23,TCAACGCA,0.0795
24,ATCGACGG,-0.0827
25,GGAACACC,-0.283

row,Sequence,PBM E-score
1,AGAACTAA,0.197
2,GACGGTGA,0.142
3,CCATTCGA,-0.011
4,CGTAGAGC,-0.0952
5,AGAGAGAC,0.178
6,GCGAATTA,-0.0352
7,GACGTGGA,-0.12
8,AAGTAGCC,-0.136
9,ACAATTGG,-0.0555
10,GAGCTTGC,-0.289
11,AACATTTC,-0.06
12,CCGACTCC,0.339
13,GGTAATCA,0.433
14,TAAAAGGA,0.0858
15,CTTGCGTC,-0.207
16,AGTTTACA,0.0123
17,ATGTGAAT,0.14
18,AAATCCAT,-0.0056
19,AGCTACAG,-0.144
20,CCAAGCGC,-0.184
21,CCTCCTTC,-0.302
22,AAAGAAGC,-0.0678
23,ATCCGGCG,-0.0969
24,ATACGGAT,-0.0661
25,ACAGCGCA,0.0121

row,Sequence,PBM E-score
1,GGACTGCC,-0.112
2,ATTAGCAC,0.0943
3,CCGACCGA,-0.175
4,GAGCCGCA,0.00564
5,CTACCCCC,-0.129
6,CGAATTGC,-0.28
7,AGGTACCG,-0.156
8,GGACTATA,0.184
9,GAATCTGC,-0.0859
10,TCGCGGAA,0.112
11,CCACCGGC,-0.201
12,ACCCCTTC,-0.18
13,CATCGCCG,-0.254
14,GCGACACC,-0.173
15,GATTTTGC,-0.13
16,CGTCTTTA,0.0496
17,CCCTTGCC,-0.0358
18,ATTCTTAA,0.0674
19,CCGGGAAC,-0.219
20,ATCGGGTC,-0.0248
21,CAGCACTC,0.0647
22,GCGAGAGA,-0.132
23,ATGTGGTA,0.047
24,CGTTAGAG,-0.0495
25,GAGGACAC,-0.221

row,Sequence,PBM E-score
1,ACCTCCAC,-0.149
2,ACTGATCT,0.217
3,GCTATCCA,-0.0339
4,GCGGCAAC,-0.255
5,ACATGCGA,0.138
6,TCGTCAGA,-0.15
7,GGCGAGGA,-0.0544
8,GAGTTATA,0.147
9,AGGATAGG,-0.0969
10,CCCTTTTA,-0.0873
11,GCCATACC,-0.166
12,CGGACTAG,-0.00496
13,GGGCCGGA,-0.261
14,GGTGCAAA,-0.221
15,ACCAGACG,-0.0677
16,ATACCAGA,0.0591
17,GTTAAAGA,0.0949
18,AATCAGGC,0.306
19,CAGTAGCA,-0.0537
20,ACCCTCCT,-0.241
21,GATTGAGC,0.166
22,ACGTACGA,-0.184
23,ATGGCGAG,0.0883
24,CAGCCGTA,-0.114
25,AGTATGGA,-0.0074

row,Sequence,PBM E-score
1,CACGATGA,0.229
2,AGCCCGTG,-0.0747
3,ACGTGTCC,-0.113
4,TGCGGGAA,-0.0294
5,AGTTATCC,-0.033
6,CTAGCTGA,0.0232
7,AAGAGAAA,-0.126
8,AGTAAGAA,0.147
9,GCTCAACC,0.189
10,GAAATTGA,0.145
11,CGAAAGGA,-0.0257
12,AAAGCACG,-0.00773
13,CACCCCCA,-0.0361
14,GCATTCTA,-0.213
15,AAGACCTG,-0.22
16,AAAGCGAG,-0.0981
17,GCGTGGGA,-0.152
18,CCAAACAC,-0.11
19,AATACCAG,-0.0862
20,AACCGCTG,-0.189
21,AAATACCA,0.0501
22,GAAGCTAC,0.0449
23,TGTCCTAA,-0.0793
24,AACACAAC,0.0654
25,AAAGCAAT,0.0493

row,Sequence,PBM E-score
1,GGATGGCA,-0.133
2,GGCTTACA,-0.163
3,TACGTATA,0.0589
4,AAGGGACA,-0.225
5,AGAGTATC,0.0567
6,GGGGCGAA,-0.172
7,ACTGTGCG,-0.041
8,ACCTCCGA,0.108
9,ATTGTGTG,-0.0514
10,ATCTACCC,0.0473
11,CCATTACG,-0.038
12,GCCCTCCA,-0.293
13,ACCGGTGA,0.0651
14,CCCACACG,-0.134
15,AGGTTTTG,-0.243
16,CACCCCCG,-0.0753
17,ACAACTGA,0.0449
18,ACAACTCT,0.175
19,AGGTACCA,-0.0498
20,AGATCAAC,0.0956
21,ATGTTGCG,-0.0228
22,CATACTAG,0.0263
23,ATCTAAGC,-0.161
24,CCTGTATC,-0.112
25,ATCCAACA,-0.0352

row,Sequence,PBM E-score
1,GCCGAGTA,-0.242
2,AAGGGAAA,0.0643
3,CCGAAGCG,-0.12
4,ACGAGGCC,-0.172
5,ATGGTGTG,0.0548
6,GCTTTCAC,-0.252
7,ACTTCCAC,-0.114
8,AACGGGGG,-0.173
9,ACGCGAGT,0.222
10,AGGTCTAG,-0.06
11,AGATATAG,0.0428
12,GGTCGACA,-0.158
13,CATAGCAG,-0.0116
14,ACGAGCTC,-0.0386
15,GATACCAC,-0.113
16,TGTCTGAA,0.0776
17,GGGATACC,-0.278
18,ATAGTGTA,-0.0175
19,CACAAGAA,0.0656
20,AGTTTTCA,-0.118
21,AAGCTTCT,-0.333
22,AGGATGGG,0.119
23,AAGCAAAC,-0.213
24,CGTTGGAA,-0.123
25,AGTAACCG,-0.0492

row,Sequence,PBM E-score
1,CCTCCCCA,-0.118
2,AACATTGC,-0.17
3,CGTAGGGA,-0.131
4,AACTCAGC,0.022
5,CAATGAAA,0.104
6,ACCATTCC,-0.199
7,ACGGACAG,-0.228
8,CTTTGTAA,0.173
9,AAAGAACG,-0.161
10,AGCAAGGG,-0.125
11,GAGCCGGA,-0.159
12,AACGTACC,-0.083
13,CGCACATC,0.00301
14,CTCTCGTC,-0.254
15,AAGGAACA,0.0102
16,ATATCGTG,-0.0602
17,AATGGCCG,-0.169
18,GAAGTGCC,-0.336
19,GGGATTAC,0.0594
20,ATTCGGCC,-0.284
21,GTCATCCA,0.314
22,TATGCATA,-0.0476
23,CATTTAGA,0.0892
24,ACTTTCCA,0.0527
25,TGGTTAAA,0.311

row,Sequence,PBM E-score
1,CTCAGAGA,0.136
2,GTGAATAA,0.0323
3,CGTAAAAA,0.0562
4,AGACACAA,0.226
5,AGGACCCT,-0.21
6,ATGCTTTG,-0.00054
7,ATAATTAT,0.178
8,ACCTTTCT,-0.128
9,ATAAATGC,-0.12
10,CTTGTGCC,-0.148
11,CCTCTACC,-0.285
12,ACAGAGGG,-0.214
13,CCCCAGGC,-0.41
14,ATCAACCG,0.0982
15,ATTGTATC,0.00167
16,CTCACGGA,0.155
17,ACACTGCC,0.0668
18,ATTGGGAC,0.0416
19,CCTACACG,-0.0592
